The target in one experiment is human CD44-Fc (human) (UniProt P16070). Nature of the experiment: BIACORE (SPR).
The target in experiment [1] is neuraminidase-treated (activated) human CD44-Fc (human) (UniProt P16070). Put plainly: BIACORE (SPR). On the technique in general: In SPR one partner is held on a chip, and binding of the other changes the refractive index at the surface.
Experiment [2] addresses human CD44 expressed on human cells (KG1a, SR91, HMEC, HUVEC, primary leukocytes) (human) (UniProt P16070). Put plainly: flow cytometry titration, binding to CD44 on KG1a cells. On the technique in general: A flow cytometer gives signals particle by particle.
The target is the same in experiment [3]. Nature of the experiment: 50% HA blocking conc., HA-FITC on KG1a cells, flow cytometry.
For experiment [4] the target is unchanged. Put plainly: 50% CD44 binding conc., flow cytometry titration on KG1a cells.
Experiment [5] shares this target. Put plainly: blocking of HA-FITC binding to CD44 on KG1a cells, flow cytometry.
Experiment [6] shares this target. Put plainly: estimated from the 50% binding concentration on KG1a cells, flow cytometry.
For experiment [7], the target named is biotinylated CD44Fc (human) (UniProt P16070). Put plainly: phage ELISA on b-CD44Fc, no competitor. (In general: In an ELISA, binding on a coated surface is turned into a signal by an enzyme label.)
For experiment [8] the target is unchanged. Nature of the experiment: competition phage ELISA on b-CD44Fc, competitor S5 (450 ng) pre-incubated.

The Kd is a measure of binding affinity in units of concentration. Usually IC50 stands for the point on the concentration scale where inhibition reaches its midpoint. As usually defined, the EC50 is the concentration giving half of the maximal effect. Low values mean higher potency in that assay, high ones lower potency in that assay.

B1: HAE-H10 IgG4 (antibody, V domains shown)
VH: EVQLLESGGGLVQPGGSLRLSCAASGFTFSPYLMSWVRQAPGKGLEWVSSIYSSGGLTDYADSVKGRFTISRDNSKNTLYLQMNSLRAEDTAVYHCARDGYYDSSGYEGFDYWGQGTLVTVSS
VL: [about 100 residues left out here]FGQGTKLEIKR
As to B1, the Kd in the experiment with human CD44-Fc (human) came out at 2350 nM; in experiment [1] it was 3450 nM. The Initial Saturation Conc. stood at 100 µg/mL in experiment [2] and 50 µg/mL in [5]. Moreover, the IC50 in [3] was 6.2 µg/mL; in experiment [6], 69 nM. Also, the EC50 in experiment [4] is 12.5 µg/mL.

B2: BE-B12 (Fab displayed on phage) (Fab, V domains shown)
VH: EVQLLESGGGLVQPGGSLRLSCAASGFTFSKYTMWWVRQAPGKGLEWVSSIWSSGGFTRYADSVKGRFTISRDNSKNTLYLQMNSLRAEDTAVYYCAGRSGSYPADIWGQGTMVTVSS
VL: [about 100 residues left out here]QTGYTFGQGTKLEIK
Take B2: the phage ELISA signal (column CD44) in experiment [7] was found to be 0.785. For the same molecule, the phage ELISA signal (column CD44 + S5) in experiment [8] was found to be 0.303.

Values taken from patent US20040110933A1.
